Among the data in the RNAGym collection of RNA variant scans (doi:10.1101/gad.245936.114) are nonsense suppression values, retold here.

To fix the notation:
B1: tRNA (parent)
chain: CUCUCGGUAGCCAAGUUGGUUUAAGGCGCAAGACUUUAAUUUAUCACUACGAAAUCUUGAGAUCGGGCGUUCGACUCGCCCCCGGGAGAUUUUUUCCUCGAGCAA

Variants at the background level are over-represented here.

The data set covers variants of B1. The experiment in a line: nonsense suppression (GFP-seq) (ratio to wild type); higher = more function; SUP4oc tRNA, yeast GFP reporter sort-seq. Summed up:
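Each variant's nonsense suppression (GFPSEQ) is a cell-share-weighted bin median GFP/RFP relative to the unmutated parent tRNA. Yeast with genome-integrated tRNA variants from a ~3% random-mutation library, a galactose-driven GFP ochre reporter and RFP were grown in raffinose/galactose medium with 80 mg/L adenine, then sorted into GFP/RFP bins for Illumina sequencing. Variants needed ≥100 reads and ≥30 cells.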
As to CUCUCGGUAGCCAAGUGGGUUUAAGGCGCAAGACUUUAAUUUAUCACUACGAAAUCUUGCGAUCGGGCGUUCGACUCGCCCCCGGGAGAUUUUUUCCUCGAGCAA [U17G A60C], the nonsense suppression was 0.188. Consider CUCUUGGUAGCCAAGUUGGUUUAAGGCGCAAGACUUUAAUUUAUCACUACGAAACCUUGAGAUCGGGCGUUCGACUCGCCCCCUGGAGAUUUUUUCCUCGAGCAA [C5U U55C G84U], for which the nonsense suppression was not above 0.026.

As for CUCUCGAUAGCCAAGUCGGUUUAAGGCGCAAGACUUUAAUUUAUCACUACGAAAGCUUGAGAUCGGGCGUUCGACUCGCCCCCGGCAGAUUUUUUCCUCGAGCAA [G7A U17C U55G G86C], the nonsense suppression was not above 0.026. Regarding CUCCCGGUAGCCAAGUUGGUUUAAGGCGCAAGACUUUAAUUUAUCACUACGAAAUCUUGAGUUCGGGCGUUCGACUCGCCCCCGGGAGAUUUUUUCCUCGAGCAA [U4C A62U], the nonsense suppression was found to be 0.272. For CUCUGGGUAGCCAAGUUGGUUUAAGGCGCAAGGCUUUAAUUUAUCACUACGAAAUCUUGAGAUCGGGCGUUCGACUCGCCCCCGGGAUAUUUUUUCCUCGAGCAA [C5G A33G G88U], the nonsense suppression was not above 0.026.

For CUCUUGGUAGCCAAGUUGGUUUAAGGCGCAAGACUUUAAUUUAUCACUACGAAAUCUUGAGAUCGGGCGUUCGACUCGGCACCGGGAGAUUUUUUCCUCGAGCAA [C5U C79G C81A], the nonsense suppression was not above 0.026. In the case of CUCUCGGUAGCCGAGUUGGUGUAAGGCGCAAGACUUUAAUUUAUCACUACGAAAUCUUGAGAUCGGGCGUUCGACUGGCCCCCGGGAGAUUUUUUCCUCGAGCAA [A13G U21G C77G], the nonsense suppression is not above 0.026.

In the case of CUCUCGGUAGCCAAGUUGGUUUAAGGCGCAAGACUUUAAUUUAUCACUACGAAAUCUUGAGAUGGGGCGUUCGACUGGCCCCCGGGAGAUUUUUUCCUCGAGCAA [C64G C77G], the nonsense suppression was not above 0.026. On to CUCUCGGCAGCCAAGUUGGUUUAAGGCGCAAGACUUUAAUUUAUCACUACGAAAUCUUGAGAUCGGGCGUUCGACUCGCCCCCGUGAGAUUUUUUCCUCGAGCAA [U8C G85U], for which the nonsense suppression is 0.0537. In the case of CUCUCGGUUGCCAAGUUGGUUUAAGGCGCAAGACUUUAAUUUAUCACUACGAAAUCUGGAGAUCAGGCGUUCGACUCGCCCCCGGGAGAUUUUUUCCUCGAGCAA [A9U U58G G65A], the nonsense suppression was not above 0.026. On to CUCUGGGUAGCCAAGUUCGUUUAAGGCGCAAGACUUUAAUUUAUCACUACGAAAUCUUGAGAUCGGGCGUUCGACUCGCCGCCGGGAGAUUUUUUCCUCGAGCAA [C5G G18C C81G], for which the nonsense suppression is not above 0.026. The result for CUCUCGGUAGCCAAGUUGGUUUAAGGCGCAAGACAUUAAUUUAUCACUACGAAAUCUUGAGAUUGGGCGUUCGACUCGCCCCCGGGAGAUUUUUUCCUCGAGCAA [U35A C64U] reads not above 0.026. With CUCUCGGUAGCCAAGUUGGUUUAACGCGCAAGACUUUAAUUUAUCACUACGAAAUCUGGAGAUCGGGCGUUCGACUUGCCCCCGGGAGAUUUUUUCCUCGAGCAA [G25C U58G C77U], the nonsense suppression was not above 0.026. For CUCUCGGUAGCCCAGUUGGUUUAAGGCGCAAGACUUUAAUUUAUCACUACGAAAUCUUGAGAUCGGGCGUCCGACUCGCCCCCAGGAGAUUUUUUCCUCGAGCAA [A13C U71C G84A], the nonsense suppression is not above 0.026. For the variant CUCUCGGUAGCCAAGUUGGUUUAAGGCGCAAGACUUUAAUUUAUCACUACGAAAGCUUGAGACCGGGCGUUCCACUCGCCCCCGGGAGAUUUUUUCCUCGAGCAA [U55G U63C G73C], the nonsense suppression was not above 0.026.

CUCUCGGUAGCCAUGUUGGUUUAAUGCGCAAGACUUUAAUUUAUCACUACGAAAUCUUGAGAUCGGGCGUUCGACUCGCCCCCGGGAGAUUUUUUCCUCGAGCAA [A14U G25U]: the nonsense suppression was not above 0.026. Regarding CUCCCGGUAGCCAAGUUGGUUUAAGGCGGAAGACUUUAAUUUAUCACUACGAAAUCUUGAGAUCGGGCGUUCGACUCGCCCCCGGGAGAUUUUUUCCUCGAGCAA [U4C C29G], the nonsense suppression is not above 0.026. Then CUGUCGGUAGCCAAGUUGGUUUAAGGCGCAAGACUUUAAUUUAUCACUACGAAAUCUUGCGAUCGGGCGUUCGACUCGCCCCCGGGAGAUUUUUUCCUCGAGCAA [C3G A60C], with not above 0.026; and CUCUCGGUCGCCAAGUUGGUUUAGGGCGCCAGACUUUAAUUUAUCACUACGAAAUCUUGAGAUCGGGCGUUCGACUCGCCCCCGGGAUAUUUUUUCCUCGAGCAA [A9C A24G A30C G88U], with not above 0.026. In the case of CUCUCGGAAGCCAAGUUGGUUUAAGGCGCAAGAAUUUAAUUUAUCACUACGAAAUCUUGAGAUCGGGCGUUCGACACCCCGCCGGCAGAUUUUUUCCUCGAGCAA [U8A C34A U76A G78C C81G G86C], the nonsense suppression is not above 0.026.

CUCUCGGUAGCCAAGUUGGUUUAAGGCUCAAGACUUUAAUUUAUCACUACGAAAUCUUGAGAUCGGGCGUGCUACUCGCCCCCGGGAGAUUUUUUCCUCGAGCAA [G28U U71G G73U]: the nonsense suppression is not above 0.026.

As for CUCUCGGUAGCCAAGUUGGUUUAAGGCGCAAGACUUUAAUUUAUCACUACGAAAUCUUGAGAUCGGGCGUUCGACUCGCCACCGGGAGCUUUUUUCCUCGAGCAA [C81A A89C], the nonsense suppression was not above 0.026. Take CUGUCGGUAGCCAAAUUGGUUUAAGGCGCAAGACUUUAAUUUAUCACUACGAAAUCUUGAGCUCGGGCGUUCGACUCGCCCCCGGGAGAUUUUUUCCUCGAGCAA [C3G G15A A62C]: the nonsense suppression is not above 0.026. CUCUCGGUAGCCAAGUUGGUUUAAGGCGCAACACUUUAAUUUAUCACUACGAAAUCUCAAGAUCGGGCGUUCGACUCGCCCCCGGGAGAUUUUUUCCUCGAGCAA [G32C U58C G59A]: the nonsense suppression is not above 0.026. Consider CUCUCGGUAGCCAAGUUGGUUUAAGGCGCAAGGCUUUAAUUUAUCACUACGAAAUCUUGAGAUCGGGCGUUCGAGUCGCCCCCGGGAGAUUUUUUCCUCGAGCAA [A33G C75G], for which the nonsense suppression worked out at 0.216.

Regarding CUCUCGGUACCCAAGUUGAUUUAAGGCGCAAGACUUUAAUUUAUCACUACGAAAUCUUGAGAUCGGGCGUUCGACUCGCCCCCGGGAGAUUUUUUCCUCGAGCAA [G10C G19A], the nonsense suppression was not above 0.026.

Turning to CUCUCGGUAGCCAAGUUGGUUUAAGGCGCACGACUUUAAUUUAUCACUACGAAAUCUUGAGAUCGGGCGUGCGACUCGCCCCCGGGAGAUUUUUUCCUCGAGCAA [A31C U71G], the nonsense suppression was not above 0.026.
